Measurements published in patent US20260184773A1, “THERAPEUTIC SINGLE DOMAIN ANTIBODY” (priority 2021, published 2026).
Where two headings read alike, the source gives them in different places.

B1: SBT-106 (protein)
VHH: EVQLVESGGGSVQAGGSLRLSCAASVYSYNTNCMGWFRQAPGKEREGVAVIYAAGGLTYYADSVKGRFTISQENGKNTVYLTMNRLKPEDTAMYYCAAKRWCSSWNRGEEYNYWGQGTQVTVSS

Columns and labels:
[1] = system: Zika DAKAR, Senegal in HFF; assay: Viral inhibition; format: cell-based, Zika virus
TC83 in HeLa = format: cell-based, Venezuelan Equine Encephalitis (TC83) virus
CHIV (181/25) in U205 = format: cell-based, Chikungunya virus
TC83 in BE3M27 = format: cell-based, Venezuelan Equine Encephalitis (TC83) virus
[2] = system: Zika DAKAR, Senegal in Vero; assay: Viral inhibition; format: cell-based, Zika virus
TC83 in U87MG = format: cell-based, Venezuelan Equine Encephalitis (TC83) virus
Zika in Vero = format: cell-based, Zika virus
ENBOV (Ebola) in HeLa = format: cell-based, Ebola virus
ENBOV (Ebola) in HFF = format: cell-based, Ebola virus

Molecule | Max % Inhibition [1] | Max % Inhibition (TC83 in HeLa) | Comment (CHIV (181/25) in U205) | EC50 (CHIV (181/25) in U205) | Max % Inhibition (CHIV (181/25) in U205) | Max % Inhibition (TC83 in BE3M27) | Max % Inhibition [2] | Max % Inhibition (TC83 in U87MG) | Max % Inhibition (Zika in Vero) | Max % Inhibition (ENBOV (Ebola) in HeLa; HeLa, ENBOV (Ebola)) | Max % Inhibition (ENBOV (Ebola) in HFF; HFF, ENBOV (Ebola)) | Max % Inhibition (ENBOV (Ebola) in HeLa) | Max % Inhibition (ENBOV (Ebola) in HFF)
SBT-100: 15 kDa camelid single domain antibody (VHH), SEQ ID NO: 1, binds both STAT3 and KRAS | 98% | 96% | Inhibits Chickungunya (CHIV | 5.05 µM | 99% | 97% | 98% | 96% | 96% | 97% | 95% | – | –
B1 | – | – | – | – | – | – | – | – | No | – | – | 45% | No
